# In patent publication US20180221306A1, “PHARMACEUTICAL COMPOSITIONS OF 5-HYDROXY-2-METHYLNAPHTHALENE-1,4-DIONE” (PellFiCure Pharmaceuticals, Inc., priority 2016, published 2018):
# What was measured:
# [1] = Experimental: Forced degradation studies were performed to determine the stability of Compound I in various aqueous formulations. Compound I formulations were prepared at approximately 5 mg/g (˜4.6 mg/mL assuming a density of 0.92 g/mL) in various aqueous media, as listed in Tables 5 and 6. The aqueous formulations were placed in stability chambers and subjected to conditions of 25° C./60% relative humidity (RH) and 40° C./75% relative humidity (RH). Samples were pulled from the formulations at 3 and 10 days. At each time point, samples were pulled from the stability chambers, diluted 20× to the nominal concentration using positive displacement pipettes and 50/50 ethanol/hexane as the diluent, and analyzed via HPLC for purity. Within the physiological pH range (around pH 7), less than 10% of initial Compound I remained in the solution after 1 week.
# [2] = remark: listed apart in the source
# Experimental: Forced degradation studies were performed to determine the stability of Compound I in various formulations. Compound I formulations were prepared at approximately 5 mg/g (˜4.6 mg/mL assuming a density of 0.92 g/mL) in various solvents, as listed in Tables 7 thorough 10. The formulations were placed in stability chambers and subjected to conditions of 25° C./60% relative humidity (RH) and 40° C./75% relative humidity (RH). Samples were pulled from the formulations at 3 and 10 days. At each time point, samples were pulled from the stability chambers, diluted 20× to the nominal concentration using positive displacement pipettes and 50/50 ethanol/hexane as the diluent, and analyzed via HPLC for purity. Stability was very good in most organic solvents but not in Tween-20 or Tween-80 surfactant formulations in which 50% or more Compound I was lost. The formulations of Compound I in PEG were 50% stable at 40° C./75%, whereas its stability in Carrier A was excellent.
structure (smiles),measurement,setting,value
"CC1=CC(=O)c2c(O)cccc2C1=O [Compound I, 5-hydroxy-2-methylnaphthalene-1,4-dione]",Stability in aqueous conditions,[1],"stable in aqueous acid, but not in basic or neutral aqueous conditions"
same,Degradation in the Carrier A formulations,[2],no significant degradation
same,Stability in Carrier A,[2],excellent
same,Stability in most organic solvents,[2],very good
